Reference: PubChem BioAssay (Tox21)
Several values for one entry are separate records, joined by “and”; a condition that tells them apart may be missing. Equal values may be shown once. The inconclusive results got no clear call from the source; some entries with a clear call stand among them for comparison. For some of these results: Potencies of inconclusive entries are doubtful fits and often do not repeat. Activity calls are given as the source filed them. Unless noted, the call rests on the fitted dose curve; in most records, active means well fitted curve in the direction sought with a large enough effect in the repeat runs; inconclusive means weak or mixed curves; inactive means no such curve, though single readings can be large; an effect the other way counts as inactive or inconclusive.

Legend:
[1] = qHTS assay to identify small molecule antagonists of the peroxisome proliferator-activated receptor gamma (PPARg) signaling pathway - cell viability counter screen (AID 743194); conditions: PPARg-bla HEK293H viability, CellTiter-Glo luminescence, 17 h; Potency: co-treated with 50 nM rosiglitazone unless noted; activity change, negative = cytotoxicity: at 62.6 µM (top of the series), co-treated with 50 nM rosiglitazone unless noted; further: nearly all actives have a fitted effect of over 55% in size; further: potency means the concentration at half of the fitted maximal effect; on activity change, negative = cytotoxicity: on the % scale 0 is the no-effect control and ±100 the full control effect
In short: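 Cytotoxicity counter screen in PPARg-bla HEK293H cells, same wells as reporter assay. Compounds plus 50 nM rosiglitazone (final) for 17 h at 37 C, then viability read by CellTiter-Glo luminescence.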

[2] = qHTS assay for small molecule agonists of the antioxidant response element (ARE) signaling pathway (AID 743202; active means well fitted activation curve with a large enough effect in the signal ratio in the repeat runs, not every such curve was filed as active; inconclusive means weak or mixed curves, or effect the other way; inactive means no such curve, though single readings can be large or run the other way; the % refers to the signal ratio; further: potency means the concentration at half of the fitted maximal effect); conditions: HepG2 ARE-bla reporter, beta-lactamase FRET, 16 h; activation: at 73.3 µM (top of the series) unless noted
In short: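 Agonist mode reporter screen: HepG2 cells with ARE-controlled beta-lactamase are incubated with test compounds for 16 h at 37 C, and beta-lactamase activity is measured as fluorescence of cleaved B/G FRET substrate.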

[3] = qHTS assay to identify small molecule agonists of the peroxisome proliferator-activated receptor delta (PPARd) signaling pathway - cell viability counter screen (AID 743211); conditions: PPARd-bla HEK293H viability, CellTiter-Glo luminescence, 17 h; activity change, negative = cytotoxicity: at 62.6 µM (top of the series); further: potency means the concentration at half of the fitted maximal effect; nearly all actives have a fitted effect of over 55% in size
In short: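 Tox21 library compounds, delivered in DMSO, were incubated 17 h with PPARd-bla HEK293H cells; cytotoxicity was taken from CellTiter-Glo luminescence read 30 min after reagent addition.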

[4] = target: Peroxisome proliferator-activated receptor delta (Homo sapiens) (UniProt Q03181); assay: qHTS assay to identify small molecule agonists of the peroxisome proliferator-activated receptor delta (PPARd) signaling pathway (AID 743212; calls by dose curve; further: potency means the concentration at half of the fitted maximal effect; on activation: on the % scale 0 is the no-effect control and ±100 the full control effect); conditions: HEK293H PPARd-UAS-bla, beta-lactamase FRET ratio, 17 h; activation: at 62.6 µM (top of the series) unless noted
UniProt Q03181, sequence (Q03181 whole entry, looked up): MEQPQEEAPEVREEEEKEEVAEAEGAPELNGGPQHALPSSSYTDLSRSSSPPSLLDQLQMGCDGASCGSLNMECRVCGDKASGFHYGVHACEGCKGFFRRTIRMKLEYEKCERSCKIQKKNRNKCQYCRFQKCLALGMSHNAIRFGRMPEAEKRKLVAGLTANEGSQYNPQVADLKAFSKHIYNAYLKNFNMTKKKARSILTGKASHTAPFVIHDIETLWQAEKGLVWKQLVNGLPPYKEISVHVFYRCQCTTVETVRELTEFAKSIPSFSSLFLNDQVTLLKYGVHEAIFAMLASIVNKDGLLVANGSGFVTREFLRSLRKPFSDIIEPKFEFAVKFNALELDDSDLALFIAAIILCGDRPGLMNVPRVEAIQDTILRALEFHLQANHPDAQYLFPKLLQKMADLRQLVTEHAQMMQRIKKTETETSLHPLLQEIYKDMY
In short: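 Quantitative high-throughput agonist screen in a HEK293H beta-lactamase reporter line under UAS control. Compounds in DMSO, at 37 C. Fluorescence read after 2 h with FRET substrate at room temperature.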

[5] = qHTS assay to identify small molecule antagonists of the peroxisome proliferator-activated receptor delta (PPARd) signaling pathway - cell viability counter screen (AID 743213); conditions: PPARd-bla HEK293H viability, CellTiter-Glo luminescence, 17 h; viability change, negative = cytotoxic: at 62 µM (top of the series) unless noted; further: potency means the concentration at half of the fitted maximal effect; nearly all actives have a fitted effect of over 50% in size
In short: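 Same-well viability: cells pre-incubated 5 h, dosed with compound plus 300 nM L165041, kept 17 h at 37 C, FRET substrate 2 h RT, then CellTiter-Glo 30 min RT and luminescence.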

[6] = target: Bile acid receptor (Homo sapiens) (UniProt Q96RI1); assay: qHTS assay to identify small molecule antagonists of the farnesoid-X-receptor (FXR) signaling pathway (AID 743217; active means well fitted inhibition curve with a large enough effect in the signal ratio in the repeat runs, not every such curve was filed as active; inconclusive means weak or mixed curves, or effect the other way; inactive means no such curve, though single readings can be large or run the other way; the % refers to the signal ratio; further: potency means the concentration at half of the fitted maximal effect); conditions: HEK293T FXR-UAS-bla, beta-lactamase ratio, CDCA-stimulated, 16 h; activity change, negative = inhibition: at 62.6 µM (top of the series) unless noted
UniProt Q96RI1, sequence (Q96RI1 whole entry, looked up): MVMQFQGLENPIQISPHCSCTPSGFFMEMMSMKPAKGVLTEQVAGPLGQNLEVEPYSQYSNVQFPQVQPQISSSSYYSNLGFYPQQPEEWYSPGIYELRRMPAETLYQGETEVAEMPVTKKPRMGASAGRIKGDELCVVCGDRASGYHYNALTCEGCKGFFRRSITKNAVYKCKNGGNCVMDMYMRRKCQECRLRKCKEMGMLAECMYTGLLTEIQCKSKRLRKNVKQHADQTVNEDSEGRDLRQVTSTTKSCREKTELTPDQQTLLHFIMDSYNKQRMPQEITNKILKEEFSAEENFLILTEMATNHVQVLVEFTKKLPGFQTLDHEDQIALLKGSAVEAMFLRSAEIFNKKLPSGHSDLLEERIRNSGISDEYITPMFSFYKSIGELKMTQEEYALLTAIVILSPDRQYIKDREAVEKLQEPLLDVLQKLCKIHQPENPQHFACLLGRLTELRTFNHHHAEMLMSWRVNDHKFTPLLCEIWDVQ
In short: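 FXR-UAS-bla HEK 293T cells (beta-lactamase reporter) given compound plus chenodeoxycholic acid (50 uM final), 16 h at 37C. LiveBLAzer B/G FRET substrate added for 2 h at room temperature; fluorescence read.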

[7] = qHTS assay for small molecule activators of the heat shock response signaling pathway (AID 743210; active means well fitted activation curve with a large enough effect in the signal ratio in the repeat runs, with a control signal flat, not every such curve was filed as active; inconclusive means weak or mixed curves; the % refers to the signal ratio; further: potency means the concentration at half of the fitted maximal effect;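 on activation: HeLa cells with beta-lactamase reporter driven by heat shock elements; on the % scale 0 is the no-effect control and ±100 the full control effect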); conditions: HeLa HSE-bla reporter, beta-lactamase ratio, 5 h; activation: at 62.6 µM (top of the series) unless noted
In short: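 Quantitative high-throughput format using an engineered HeLa line in which heat shock response elements drive beta-lactamase; after 5 h with compound, cells received a B/G FRET substrate and fluorescence was read.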

[8] = target: Peroxisome proliferator-activated receptor delta (Homo sapiens) (UniProt Q03181); assay: qHTS assay to identify small molecule antagonists of the peroxisome proliferator-activated receptor delta (PPARd) signaling pathway (AID 743215; active means well fitted inhibition curve with a large enough effect in the signal ratio in the repeat runs, not every such curve was filed as active; inconclusive means weak or mixed curves, or effect the other way; inactive means no such curve, though single readings can be large or run the other way; the % refers to the signal ratio;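 further: cells stimulated with agonist L165041 at 300 nM final during compound exposure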; further: potency means the concentration at half of the fitted maximal effect; on ratio activity, negative = inhibition: on the % scale 0 is the no-effect control and ±100 the full control effect); conditions: HEK293H PPARd-UAS-bla, beta-lactamase FRET ratio, antagonist, 17 h; ratio activity, negative = inhibition: at 62 µM (top of the series) unless noted
In short: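 PPARd-bla HEK293H cells (UAS-bla reporter) preincubated 5 h, then given compound plus 300 nM final L165041 agonist for 17 h at 37 C. Beta-lactamase activity read by LiveBLAzer B/G FRET substrate fluorescence after 2 h at room temperature.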

[9] = qHTS assay for small molecule activators of the heat shock response signaling pathway - cell viability counter screen (AID 743209); conditions: HSE-bla HeLa viability, CellTiter-Glo luminescence, 5 h; activity change, negative = cytotoxicity: at 62.6 µM (top of the series) unless noted; further: on the % scale 0 is the no-effect control and ±100 the full control effect; nearly all actives have a fitted effect of over 50% in size
In short: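 HSE-bla HeLa cells plated overnight, then exposed to Tox21 compounds (23 nL in DMSO) for 5 h at 37 C. After the bla reporter read, CellTiter-Glo was added in the same wells and luminescence read after 30 min at room temperature.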
Tags describe the fitted curve by direction and shape or compound fluorescence and quenching.

C[C@H]1O[C@@H](O[C@H]2[C@@H](O)C[C@H](O[C@H]3[C@@H](O)C[C@H](O[C@H]4CC[C@@]5(C)[C@H](CC[C@@H]6[C@@H]5CC[C@]5(C)[C@@H](C7=CC(=O)OC7)CC[C@]65O)C4)O[C@@H]3C)O[C@@H]2C)C[C@H](O)[C@@H]1O
inconclusive: Potency [2] 173 nM [rising, full curve] and 596 nM [rising, full curve] | Potency [3] 0.0553 µM [cytotoxic, full curve] | Potency [4] 0.106 µM [rising, partial curve, poor fit] | activation [4] 21.2% | Potency [6] 196 nM [rising, full curve] and 106 nM [rising, full curve]
active: Potency [1] 7.8 nM and 33.5 nM | Potency [5] 19.6 nM and 84.1 nM

C=C(C)C(=O)[O][Sn]([CH2]CCC)([CH2]CCC)[CH2]CCC
inconclusive: Potency [2] 0.433 µM [falling, full curve] | Potency [7] 8.71 µM [falling, full curve] | Potency [4] 0.776 µM [rising, partial curve] | Potency [8] 12.3 µM [cytotoxic, full curve] | Potency [6] 0.692 µM [rising, full curve]
active: Potency [1] 0.549 µM | Potency [5] 1.55 µM

O=C(Nc1ccc2[nH]ccc2c1)c1cc2cc(F)ccc2n1Cc1cccc(F)c1
inconclusive: Potency [2] 54.5 µM [falling, partial curve] | Potency [7] 37.4 µM | activation [4] 25% | Potency [8] 17.4 µM [cytotoxic, partial curve, poor fit]
active: Potency [1] 19.5 µM | Potency [5] 43.6 µM | Potency [6] 54.9 µM

N#CC(Cl)Cl
inconclusive: Potency [1] 53.5 µM [cytotoxic, partial curve, poor fit] | Potency [2] 23.7 µM [rising, partial curve] | Potency [7] 60 µM [activator] | activation [4] 2.84% | ratio activity, negative = inhibition [8] -16.8%

[CH3][Hg][Cl]
active: Potency [1] 12.3 µM | Potency [3] 12.3 µM
inconclusive: Potency [2] 9.66 µM [falling, full curve] | Potency [7] 50.8 µM | Potency [4] 24.5 µM [rising, full curve] | Potency [8] 54.8 µM [single point] | Potency [6] 21.8 µM [full curve]

CC(c1ccc(O)cc1)(c1ccc(O)cc1)c1ccc(O)cc1
inconclusive: Potency [1] 54.9 µM [cytotoxic] | Potency [2] 77 µM [falling, partial curve, poor fit] | Potency [7] 61.6 µM [activator] | Potency [3] 61.6 µM [cytotoxic, single point] | activation [4] 5.94% | Potency [6] 15.5 µM [rising, partial curve]

CCc1cccc(C)c1N(C(=O)CCl)C(C)COC (stereo unspecified)
inconclusive: activity change, negative = cytotoxicity [1] 39.3%
active: Potency [2] 8.14 µM and 19.3 µM
inactive: Potency [7]

CCOP(=O)(OCC)Oc1ccc([N+](=O)[O-])cc1
inconclusive: Potency [1] 248 nM [cytotoxic, full curve, poor fit] and 490 nM [cytotoxic] | Potency [2] 22 µM [falling, partial curve] and 27.3 µM [falling, partial curve] | Potency [7] 55.6 µM [falling, partial curve] | Potency [5] 2.21 µM [cytotoxic, full curve, poor fit] and 5.49 µM [cytotoxic, single point] | ratio activity, negative = inhibition [8] -25% [at 80.4 µM] | Potency [6] 27.9 µM [inhibitor, partial curve] and 17.4 µM [inhibitor, partial curve]

CC(=O)C(Cl)(Cl)Cl
inconclusive: Potency [1] 0.237 µM [cytotoxic, full curve] | Potency [2] 59 µM [rising, partial curve, poor fit] | Potency [7] 29.8 µM [falling, partial curve, poor fit] | Potency [3] 0.944 µM [cytotoxic, partial curve, poor fit] | Potency [4] 29.8 µM [rising, partial curve, poor fit] | Potency [5] 0.841 µM [cytotoxic, full curve, poor fit] | ratio activity, negative = inhibition [8] -34.3%

BrC(Br)Br
inactive: Potency [1] | Potency [9] | Potency [7]

CC1(C)C(C=C(Cl)Cl)C1C(=O)OC(C#N)c1cccc(Oc2ccccc2)c1 (stereo unspecified)
inconclusive: activation [2] -5% and -8.28% | Potency [5] 54.9 µM [cytotoxic, single point]
inactive: Potency [1]
